Experimental data reported in ChEMBL document CHEMBL4888484, “Replenishing the malaria drug discovery pipeline: Screening and hit evaluation of the MMV Hit Generation Library 1 (HGL1) against asexual blood stage Plasmodium falciparum ,using a nano luciferase reporter read-out” (2022).
Values joined by “and” are separate entries in the source; they are usually repeats but may differ in a detail not shown here. Identical values can stand only once. Hit rate of the full screen: of about 150,000 compounds, about 540 (0.36%) showed an effect of 50% or more. This is one part of the list.

System: Plasmodium falciparum
Assay: Primary screen in NF54 nanoGlo assay, in single point, at 2uM, 72h; a lower Z score goes with more inhibition
Assay type: functional, Erythrocyte
Conditions: timepoint 72 hour

SMILES | % Inhibition | Z score | % Inhibition (2 µM)
CCc1noc(C(C)NC(C)Cc2ccc(Cl)cc2)n1 (configuration not stated) | -10% | 1.48 | 
C[C@@H]1CN(Cc2c(F)cccc2Cl)CCN1 | 2% | -0.27 | 
CC1CC1C(=O)N[C@H]1CC[C@@H](CS(=O)(=O)F)C1 (some centres not stated) | -11% | 1.23 | 
CCN(C)CC1CCN(C(C)C(=O)c2c(C)[nH]c3ccccc23)C1 (configuration not stated) | 7% | -0.97 | 
COc1cccc(-n2nc3c(c2N)N2CCC3CC2)c1 | -11% | 1.32 | 
COC[C@H](CCO)Nc1ccc(C#N)c(Br)c1F | -1% | 0.13 | 
CCCC1CCC(CN[C@@H](C)Cn2cccn2)CC1 (some centres not stated) | -13% | 1.32 | 
CCN(c1ccc(C#N)c(Cl)c1)S(=O)(=O)c1ccnn1CC | -12% | 1.13 | 
CC[C@H]1CN(C(N)=O)CCN1CC(F)F | -14% | 1.34 | 
O=C1CO[C@H]2CN(Cc3ncc[nH]3)C[C@H]2N1Cc1ccccn1 | 1% | -0.12 | 
CCCC(=O)N1CCC(c2c[nH]cn2)CC1 | 2% | -0.25 | 
Cc1nc[nH]c1CN1CCCC12CCN(c1ncccn1)CC2 | 2% | -0.17 | 
Nc1ccnc2c1CN(CC1CC3(CCC3)C1)CC2 | 8% | -0.8 | 
Cc1nonc1CC(=O)N1CCN(C)C[C@@H]1CC(C)C | -11% | 1.84 | 
CC(=O)c1cccc(C(=O)N[C@H]2CCC[C@@H]2N(C)C)c1 | -12% | 1.52 | 
Cc1noc(C)c1CN1CC2CCN(c3ccccc3)C2C1 (configuration not stated) | -14% | 1.18 | 
COCC(C)NC1CCCCC1OC (configuration not stated) | -4% | 0.75 | 
O=C(Cc1n[nH]c(=O)c2ccccc12)N1CCC2(CC1)OCCO2 | -11% | 1.85 | 
Cc1oc(-c2ccccc2)nc1CN1C(=O)CN=C(c2ccccc2)c2ccccc21 | -3% | 0.47 | 
COc1ccccc1[C@H]1CN(c2ncccc2C#N)[C@@H]2C3CCN(CC3)[C@H]12 | -3% | 0.47 | 
O=C(N[C@H]1COC[C@@H]1N1CCOCC1)c1ccco1 | -8% | 1.28 | 
Cc1ccc(-c2nc(CC(=O)N3CCN(C)C[C@@H]3C)cs2)o1 | -5% | 0.62 | 

SMILES | % Inhibition | Z score | % Inhibition (2 µM)
CCCCS(CCCC)=C1C(=O)NC(=O)N(c2ccccc2F)C1=O | -5% | 0.75 | 
c1c[nH]c(-c2cn(CCc3c[nH]cn3)nn2)n1 | 2% | -0.37 | 
Cc1ccc(Br)c(S(=O)(=O)NCCc2nc(=O)o[nH]2)c1 | -42% | 4.91 | 
CC(C)C(=O)N1CCc2cc(-c3ccc(C(=O)N4CCC5(CC4)OCCO5)cc3)ccc21 | -5% | 0.94 | 
COCCn1nnnc1[C@]1(N2CCCC2)CCN(C(=O)Cc2cccc(F)c2)C1 | -7% | 0.8 | 
CCc1ocnc1C(=O)N1C[C@@H](c2cccc(O)c2)[C@@H]2[C@H]1C1CCN2CC1 | 2% | -0.32 | 
CCc1nnc(CN2CC3(CC3)C2)s1 | -2% | 0.18 | 
Clc1cncc(CN2CC[C@@H]3CC[C@@]32c2cccnc2)c1 | -6% | 0.96 | 
CC(Cc1ccccn1)NCC(c1ccco1)N1CCCC1 (configuration not stated) | -5% | 0.65 | 
O=c1cccc2n1CC1CC2CN(c2nc(N3CCOCC3)nc(N3CCOCC3)n2)C1 (configuration not stated) | -10% | 1.73 | 
C[C@H]1COC2(CCN(C(=O)c3cc4c(cc3O)CCCC4)CC2)O1 | 32% | -3.65 | 
CN1CCN(c2nccc(C(F)(F)F)n2)C[C@]12CCNC(=O)CC2 | -25% | 2.27 | 
CCn1cc(Cl)cc1C(=O)N(C)Cc1n[nH]c(=O)o1 | 8% | -1.47 | 
Cc1ccncc1C(=O)N1C[C@@H](c2cc(F)cc(F)c2)[C@@H]2[C@H]1C1CCN2CC1 | 3% | -0.58 | 
CCCc1cnc(C)nc1N1CCC2(CC1)C(=O)NCCN2C | 0% | 0.06 | 
Fc1ccc([C@H]2NCc3cc4c(cc3-n3cccc32)OCO4)cc1 | -11% | 2.19 | 
Cc1cccn2c(CC(=O)N3C[C@H]4CC[C@@H](C3)N(CC3CC3)C4)cnc12 | 0% | -0.08 | 
CCC(=O)Nc1ccc(N(C)C2CCN(C)CC2)c(CN(C(=O)Nc2cccc(F)c2)C2CCCCC2)c1 | -7% | 1.35 | 
CC12CCN(Cc3ncc[nH]3)CC1C2(F)F (configuration not stated) | 32% | -2.71 | 
Cc1ncn(CC2CCN(S(=O)(=O)c3ccc4oc(=O)[nH]c4c3)CC2)c(=O)c1C | -14% | 2.06 | 
O=C(C1CCOCC1)N1CCCC[C@@H]1CCS(=O)(=O)F | 1% | -0.14 | 
N#Cc1c(N)nc2c(c1-c1cc3ccccc3o1)[C@@H]1CC[C@H](C2)N1 | -8% | 0.97 | 

SMILES | % Inhibition | Z score | % Inhibition (2 µM)
O=C(c1ccc2c(c1)OCO2)N1CCC2(CC1)OCCO2 | -14% | 1.92 | 
Cc1cc(-c2ccc(S(=O)(=O)N3CCC(C(=O)N4CCC5(CC4)OCCO5)CC3)o2)[nH]n1 | -17% | 2.78 | 
CN1CCCN(C(=O)Cc2ccsc2)CC1 | -6% | 0.72 | 
Cc1ccc(Cc2nc(C3CN4CCCCC4CO3)no2)cn1 (configuration not stated) | 1% | -0.19 | 
CC(C)(C)CC(C)(C)NCc1cccnc1 |  |  | 1%
Cc1ccc(-n2c(N3CCCCC3)nc3ccccc3c2=O)cc1 | -1% | 0.22 | 
Cc1cc(C(=O)NC2CC(C)n3ccnc32)nn1C(C)C (configuration not stated) | 62% | -7.62 | 
COc1ccccc1Cn1cc(C(=O)NCCC(C)C)c(=O)c(C(=O)N2CCCCCC2)c1 | -7% | 0.91 | 
Cc1nc(-c2cc(S(=O)(=O)N3CCC(C(=O)N4CCC5(CC4)OCCO5)CC3)c(C)s2)no1 | -18% | 2.91 | 
CO[C@H]1C[C@H]2CC[C@@H](C1)N2Cc1ccsc1 | -8% | 1.63 | 
CCC1CN2CCCC2CN1C(=O)c1cc(C2CC2)on1 (configuration not stated) | -12% | 1.71 | 
CC(=O)N(C)CC(=O)N[C@@H](C)Cc1ccccc1Br | 1% | -0.12 | 
Cc1ccc(S(=O)(=O)Nc2ccc(S(=O)(=O)N[C@H]3CN4CCC3CC4)cc2)cc1C | 3% | -0.32 | 
OCC1C2CCC(C2)N1Cc1ccccc1 (configuration not stated) | 0% | -0.08 | 
CCOc1ccccc1NC(=O)N1[C@@H]2CC[C@H]1Cc1nc(CC)[nH]c(=O)c1C2 | -16% | 2.31 | 
O=C(c1nn(Cc2ccccc2)c2nccc(-c3cccs3)c12)N1CCC(Cc2ccccc2)CC1 | -13% | 1.66 | 
C[C@@H](Cc1ccsc1)NCCc1cn2ccccc2n1 | -9% | 0.85 | 
CC1(C)C2CC=C(CN3CCN(c4ccccn4)CC3)C1C2 (configuration not stated) | 7% | -1.06 | 
CC(C)Cn1ccc(C(=O)NC2CC(C(=O)O)c3ccccc32)n1 (configuration not stated) | 9% | -1.19 | 
Cc1ccc2oc(=O)n(Cc3ccc(OCCC(C)C)cc3)c2c1 | -20% | 3.81 | 
CCCCS(=O)(=O)NCC#CCN1CCOCC1 | -6% | 0.64 | 
CCCCOc1ncccc1CNC(=O)C1CN2CCCC2CO1 (configuration not stated) | -1% | 0.09 | 

SMILES | % Inhibition | Z score | % Inhibition (2 µM)
CCN(CC)[C@@H](CN)c1ccc(C)cc1 | 9% | -1.16 | 
CNc1nc(NC[C@@H]2CCCN3CCCC[C@H]23)ncc1F | 6% | -1.21 | 
Cc1ccc2nsnc2c1N1CC1=O | -7% | 0.84 | 
c1cncc(CN2C[C@H]3CC[C@@H](C2)N(Cc2ncc[nH]2)C3)c1 | 8% | -1.13 | 
O[C@@H](CNCCc1c[nH]c2ccccc12)c1ccccc1 | -19% | 1.6 | 
O=c1ccc(-c2cncnc2)c2n1C[C@H]1C[C@@H]2CN(S(=O)(=O)c2ccccc2)C1 | -11% | 1.78 | 
C[C@@H](CNC1CCCC1)c1ccccc1 |  |  | 11% and 3%
Cc1cc(=O)c(OCC(=O)N2CCN(Cc3ccc4c(c3)OCO4)CC2)cn1C | -10% | 1.11 | 
CC(C)N1CC2(CN(C(=O)c3cccnc3)C[C@@H]3C[C@@H](O)CN32)C1 | -8% | 1.26 | 
COc1cc(N2C[C@@H](c3ccccc3OC)[C@@H]3[C@H]2C2CCN3CC2)ncn1 | 4% | -0.57 | 
CCC1CCC(NC[C@H]2CCCO2)CC1 (some centres not stated) | -4% | 0.67 | 
CNCCc1cc(OC)c(OC)c2c1ccc1cc(OC)c(OC)cc12 | 32% | -0.73 | 
Cn1ccc(-c2noc(C(C)(C)c3c[nH]cn3)n2)n1 | 5% | -0.85 | 
O=C1CCc2cc(C(=O)N3CCC4(CC3)OCCO4)ccc2N1 | -1% | 0.17 | 
CCN(CCN1CCOCC1)S(=O)(=O)c1ccc2oc(=O)[nH]c2c1 | -5% | 0.68 | 
Cc1cnccc1CCN[C@@H](C)Cc1ccc(O)cc1 | -1% | 0.08 | 
O=C(c1cccnn1)N1C[C@H](c2ccc3c(c2)OCO3)[C@@H]2[C@H]1C1CCN2CC1 | -11% | 1.42 | 
COCCOCCC(=O)N[C@@H](C)Cc1cccc(Cl)c1 | -15% | 2.19 | 
CCCCS(CCCC)=C1C(=O)NC(=O)N(Cc2ccc(F)cc2)C1=O | -2% | 0.21 | 
COc1ccc(-c2c(C#N)c(N)nc3c2N2CCC3CC2)c(OC)c1C | 9% | -1.29 | 
Cc1ccc(-c2cn(CC(=O)Nc3cccc(C)c3C)c(=O)o2)cc1 | -16% | 1.64 | 
